In publication PMC4336329 (PLoS ONE, 2015):
About 14,000 (4.5%) of roughly 310,000 compounds showed an effect of 50% or more. The effect is printed as a negative number. The list shows a part of the results.

Each compound was assayed against human ether-à-go-go-related gene (hERG) potassium channel (human, UniProt Q12809) (assay: primary screen, population patch clamp on CHO cells stably expressing hERG).
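Further: peak tail current of the secondary pulse compared with the same well before compound.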

Chain of human ether-à-go-go-related gene (hERG) potassium channel (Q12809 whole entry, looked up): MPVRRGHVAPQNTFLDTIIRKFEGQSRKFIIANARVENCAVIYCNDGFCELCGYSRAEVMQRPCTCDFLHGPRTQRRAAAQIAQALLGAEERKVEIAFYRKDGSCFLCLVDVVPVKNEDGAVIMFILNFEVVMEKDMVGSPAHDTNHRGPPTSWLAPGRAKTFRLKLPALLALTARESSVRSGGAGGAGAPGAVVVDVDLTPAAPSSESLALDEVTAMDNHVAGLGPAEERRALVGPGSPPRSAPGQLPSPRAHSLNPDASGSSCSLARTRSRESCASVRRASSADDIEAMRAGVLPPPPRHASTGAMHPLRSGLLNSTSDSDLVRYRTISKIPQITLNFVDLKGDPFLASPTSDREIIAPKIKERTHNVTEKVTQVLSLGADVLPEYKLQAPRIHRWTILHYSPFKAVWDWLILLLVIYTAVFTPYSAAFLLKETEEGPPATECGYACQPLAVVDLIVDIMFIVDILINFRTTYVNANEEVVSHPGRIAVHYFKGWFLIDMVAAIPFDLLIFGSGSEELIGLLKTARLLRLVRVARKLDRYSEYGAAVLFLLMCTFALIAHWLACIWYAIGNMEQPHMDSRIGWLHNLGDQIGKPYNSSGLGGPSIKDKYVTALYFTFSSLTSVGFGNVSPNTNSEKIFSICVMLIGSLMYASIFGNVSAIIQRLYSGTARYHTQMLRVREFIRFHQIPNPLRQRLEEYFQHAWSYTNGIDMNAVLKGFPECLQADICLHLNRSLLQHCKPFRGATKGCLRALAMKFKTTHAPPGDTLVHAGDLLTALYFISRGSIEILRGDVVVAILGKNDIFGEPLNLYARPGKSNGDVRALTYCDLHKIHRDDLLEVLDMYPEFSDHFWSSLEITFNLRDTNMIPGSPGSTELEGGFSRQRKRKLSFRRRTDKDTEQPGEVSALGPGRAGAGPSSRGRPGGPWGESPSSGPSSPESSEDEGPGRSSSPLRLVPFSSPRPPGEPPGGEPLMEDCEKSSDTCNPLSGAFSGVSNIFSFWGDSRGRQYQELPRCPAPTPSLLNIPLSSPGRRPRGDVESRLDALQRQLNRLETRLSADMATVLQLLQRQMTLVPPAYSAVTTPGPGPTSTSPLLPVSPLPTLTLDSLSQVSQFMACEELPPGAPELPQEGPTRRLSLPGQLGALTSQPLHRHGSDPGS

| Structure (SMILES) | hERG current change (%, negative = inhibition) at 10uM [%] |
| --- | --- |
| CCN1CCN(C(=O)N[C@@H](C(=O)N[C@@H]2C(=O)N3C(C(=O)O)=C(CSc4nnnn4C)CS[C@H]23)c2ccc(O)cc2)C(=O)C1=O.O | 10 |
| COc1cc(N=Nc2c(C)n(C)n(-c3ccccc3)c2=O)ccc1N | 10.6 |
| CCOc1ccc(N)c(SSc2cc(OCC)ccc2N)c1 | 19.3 |
| CC(C)Oc1cccc(C(=O)C2CCCN(C(=O)CCn3cnnn3)C2)c1 (stereo not shown) | -5.7 |
| CS(=O)(=O)Nc1ccc(C(=O)Nc2ccc(S(=O)(=O)N3CCCC3)cc2)cc1 | -13.7 |
| CCOc1ccccc1NC(=O)NC1(C(=O)NCC2CCCO2)CCCCC1 (stereo not shown) | 15 |
| CSc1nnc(CSCc2ccc(Cl)cc2Cl)n1-c1ccccc1 | 6.12 |
| Cc1cccc(/C=N/NC(=O)CC(=O)NCCc2ccccc2)c1 | 22.9 |
| CC(C)COc1ccc(C(=O)Nc2sc3c(c2C(=O)O)CC(C)(C)OC3)cc1 | 23.7 |
| CC(=O)Nc1ccc(Nc2c([N+](=O)[O-])cc(S(C)(=O)=O)cc2[N+](=O)[O-])cc1 | 11 |
| CC(C)N1CCN(Cc2cccc3nonc23)CC1CCO (stereo not shown) | 1.05 |
| CCOc1ccc(NS(=O)(=O)c2ccc(NS(=O)(=O)c3ccc(SC)cc3)cc2)cc1 | 9.43 |
| CCN(CC)c1ccc(N=CN2CCOCC2)cc1 | 0.98 |
| COc1ccc(S(=O)(=O)N2CCCc3ccccc32)cc1OC | -10.1 |
| CC(=O)Nc1ccc(S(=O)(=O)NNC(=S)NCC2CCCO2)cc1 (stereo not shown) | 6.75 |
| Cc1cc(C(=O)O)n(C(C)(C)C)n1 | 8.47 |
| CCN(CCO)C(=O)CC(c1ccccc1)c1cc(Br)ccc1O (stereo not shown) | -14.5 |
| CCCC(=O)N1CC2(CCC)CN(C(=O)CCC)CC(CCC)(C1)C2=O | -8.46 |
| C=C(C)c1cccc(C(C)(C)NC(=O)NC2CN3CCC2CC3)c1 (stereo not shown) | 1.14 |
| CC(C)CC1Nc2ncnc(N3CCN(c4ccccc4)CC3)c2N(Cc2ccc(Cl)cc2)C1=O.O=C(O)C(F)(F)F (stereo not shown) | -2.17 |
| CN1CCN(C(=O)C2CCCN(S(=O)(=O)c3ccc(Cl)cc3)C2)CC1 (stereo not shown) | -18.8 |
| O=C(NCc1cccc(C(F)(F)F)c1)C1CC(c2ccccc2F)=NO1 (stereo not shown) | -6.12 |

| Structure (SMILES) | hERG current change (%, negative = inhibition) at 10uM [%] |
| --- | --- |
| COc1cc2cc(CCCOC(=O)c3ccc(C(F)(F)F)cc3)oc(=O)c2cc1OC | -18.6 |
| Cc1ccc(CNC(=O)Cn2nnc(C(=O)Nc3cccc(C)c3C)c2N)cc1 | 13.1 |
| O=C(NNC(=O)c1ccc(SCC2CCCO2)c([N+](=O)[O-])c1)c1ccc(Cl)c([N+](=O)[O-])c1 (stereo not shown) | -12.3 |
| O=C(CN1CCN(c2ccc(F)cc2)CC1)Nc1cccnc1Cl | 13.3 |
| Cc1cccc(-c2oc(C)c(C)[n+]2[O-])c1.Cl | -6.92 |
| Cc1ccccc1N=C(NO)c1cccnc1 | 5.78 |
| NC(=O)/C(=C\c1ccco1)NC(=O)c1ccc(Br)o1 | 4.3 |
| O=c1n(Cc2ccccc2Cl)nc2n1-c1ccccc1SC2 | 0.692 |
| COc1ccc(N=C2C(=Nc3ccc(OC)cc3)N(c3ccc(N(C)C)cc3)C(=S)N2c2ccc(OC)cc2)cc1 | -6.16 |
| CCOC(=O)C1CCCN(C(=O)c2ccco2)C1 (stereo not shown) | -1.06 |
| Cc1nc(S(=O)(=O)Cc2ccccc2Cl)nc2c1CCC2 | 24.1 |
| COc1ccc(C(=O)CSc2nnc(-c3cc(C)on3)o2)cc1 | 9.46 |
| Cc1cccc(OCc2nnc(SCC(=O)N3CCCCC3)o2)c1 | 2.26 |
| O=C(Cc1ccc(Cl)cc1)Nc1ccc(C(=O)N2CCCCC2)cc1 | 14.5 |
| N#C/C(=C\c1ccc(-c2ccccc2[N+](=O)[O-])o1)C(N)=O | 24.6 |
| CCOc1ccccc1NC(=O)N1CCC2(CC1)OCCO2 | -7.18 |
| CN(C)c1ccnc(SCc2ccccc2Cl)c1C#N | 8.48 |
| Cc1cc(NC(=O)c2cc(-c3cccnc3)nc3c(C)c(C)ccc23)no1 | -1.82 |
| O=C(NCc1ccco1)/C(=C\c1ccco1)NC(=O)c1ccc(Br)o1 | -11.8 |
| CC(C)c1ccc(-c2nnn(CC(=O)N3CCCCC3)n2)cc1 | 1.06 |
| COc1ccc(S(=O)(=O)N2CCOCC2)cc1C(=O)NCc1ccccc1CN1CCCC1 | -20.6 |
| Cc1ccc2nc(CCc3nc4ccc(C)cc4o3)oc2c1 | 4.09 |

| Structure (SMILES) | hERG current change (%, negative = inhibition) at 10uM [%] |
| --- | --- |
| CC(=O)C1=C(C)NC(=O)NC1c1ccccc1 (stereo not shown) | 8.76 |
| CCOC(=O)N1CCC(NC(=O)C(NS(=O)(=O)c2ccc3c(c2)CCN3C(=O)CC)C(C)C)CC1 (stereo not shown) | -6.47 |
| COc1cc2cc(C(=O)Nc3ccc4c(c3)OCCO4)[nH]c2cc1OC | 20.7 |
| Cc1ccc(OCC(=O)Nc2cc(C(=O)O)cc(C(=O)O)c2)cc1C | 8.87 |
| C/C(CC(=O)Nc1ccc(N(C)C)cc1)=N\NC(=O)c1ccccn1 | 7.77 |
| Cc1noc(C)c1COC(=O)C1CCN(S(=O)(=O)c2ccc(F)cc2)CC1 | -33.7 |
| CCOc1ccc(Cc2nnc(SCC(N)=O)n2C)cc1 | -1.77 |
| Cc1cccc(C)c1NC(=O)NNC(=O)c1cc(C(C)(C)C)nn1Cc1ccccc1 | 0.818 |
| Cc1ccc(-n2nnc3c(=O)oc4ccccc4c32)cc1 | 5.81 |
| COC(=O)c1cc(NC(=O)C2CC(=O)NC(=NCc3ccc(OC)cc3)S2)cc(C(=O)OC)c1 (stereo not shown) | 3.45 |
| CC(C)(C)NC(=O)NC(=O)CN1CCN(S(=O)(=O)c2ccc3c(c2)OCCO3)CC1 | -3.8 |
| COc1cc2ncnc(NCc3cccs3)c2cc1OC | -17.3 |
| Nc1ccc(-c2nnnn2-c2ccc(N)cc2)cc1 | 26.5 |
| CCOC(=O)N1CCN(c2c(-c3ccc(C)cc3)c(=O)c2=O)CC1 | -29.7 |
| CCCC1(C(=O)OC)NC(c2ccc(OC)c(OC)c2)C2C(=O)N(c3ccc4c(c3)OCO4)C(=O)C21 (stereo not shown) | 16.7 |
| COC(=O)Nc1nc2c(s1)CCCC2 | 11 |
| CCOc1ccc(NC(=O)CN(C)C(=O)c2cc(C)on2)cc1OCC | 17.2 |
| COc1ccc(N(C)C(=O)C2CCN(S(=O)(=O)c3cccc4nsnc34)CC2)cc1 | 16.2 |
| O=C(CN1CCOCC1)Nc1ccc(Br)cc1C(=O)c1ccccc1 | -32.4 |
| O=C(Nc1cccc(C(=O)Nc2cccc(C(F)(F)F)c2)c1)c1ccc(=O)[nH]c1 | 10 |
| CC(=O)Oc1cccc(N2C(=O)C3C4C=CC(CC4)C3C2=O)c1 (stereo not shown) | 16.1 |
| CN(C)S(=O)(=O)c1ccc(C(=O)Nc2ccc(CN3CCCC3)cc2)cc1 | -2.62 |

| Structure (SMILES) | hERG current change (%, negative = inhibition) at 10uM [%] |
| --- | --- |
| COc1ccccc1/C=C/C(=O)NCCC1=CCCCC1 | 14.9 |
| Cc1cccc(NC(=S)NCCCN2CCOCC2)c1 | -8.63 |
| COc1ccc(-n2c(C)nc3c(cnn3-c3ccc(C)cc3)c2=O)cc1 | -32.2 |
| Cc1ccc(CN(C(=O)c2csnn2)C(C(=O)NC2CCCC2)c2cccnc2)cc1 (stereo not shown) | -7.95 |
| OCc1ccc(N=Nc2ccccc2)cc1 | 3.29 |
| COc1ccc2oc(=O)c(-c3nnc(NCc4ccco4)s3)cc2c1 | -0.652 |
| CCc1cc2cc3c(cc2nc1SCC(=O)Nc1cc(C)on1)OCO3 | 4.89 |
| Cc1cc(C)n2[nH]c(=O)c(N=Nc3cccc(C(F)(F)F)c3)c2n1 | -23.8 |
| Cc1ccc(NC(=O)CN2CCOCC2)cc1 | 14.1 |
| CCCCn1c(=O)c(C(=O)Nc2ccccc2Cl)c(O)c2ccccc21 | 18.3 |
| CC(C)(C)NC(=O)C(c1cccs1)N(Cc1cccs1)C(=O)c1ccc(CN2CCOCC2)o1 (stereo not shown) | 1.44 |
| COc1ccc(CCNC(=O)CN2CCC(C(N)=O)CC2)cc1 | 14.8 |
| COc1ccc(NC(=O)C2CCN(S(=O)(=O)c3cccc4nonc34)CC2)cc1OC | 3.96 |
| CCc1ccc(CN(C)C(=O)c2cc(COc3cccc(C(F)(F)F)c3)on2)nc1 | -22.3 |
| CCOC(=O)C1(C)/C(=N/Nc2ccccc2)C(=O)C(=O)N1c1ccccc1 (stereo not shown) | -18.3 |
| CC(C)NC(=O)NC(=O)CSc1nnc(C(F)(F)F)n1C | 8.44 |
| O=C(N/N=C/c1ccncc1)c1ccccc1[N+](=O)[O-] | 2.56 |
| C/C(=N\O)C(=O)OC1CC(C)CCC1C(C)C (stereo not shown) | -0.433 |
| COc1ccc(CCNC(=O)COc2ccc([N+](=O)[O-])cc2)cc1 | -31.1 |
| COc1ccc(S(=O)(=O)N2CCN(C(=O)c3ccco3)CC2)cc1C(C)(C)C | 4.96 |
| COCCCN=C1NN=C(c2cc(C)n(Cc3ccccc3Cl)c2C)CS1 | -6.95 |
| Cc1cc(C(=O)Nc2ccc(Br)cc2)c2ccccc2n1 | 17 |
